# Out of some 310,000 compounds screened, about 14,000 (4.5%) showed an effect of 50% or more. Effects have a minus sign here. Some of the results follow.
# Target: human ether-à-go-go-related gene (hERG) potassium channel (human, UniProt Q12809)
# Assay: primary screen, population patch clamp on CHO cells stably expressing hERG
# 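Further: peak tail current of the secondary pulse compared with the same well before compound.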
# human ether-à-go-go-related gene (hERG) potassium channel, sequence (Q12809 whole entry, looked up): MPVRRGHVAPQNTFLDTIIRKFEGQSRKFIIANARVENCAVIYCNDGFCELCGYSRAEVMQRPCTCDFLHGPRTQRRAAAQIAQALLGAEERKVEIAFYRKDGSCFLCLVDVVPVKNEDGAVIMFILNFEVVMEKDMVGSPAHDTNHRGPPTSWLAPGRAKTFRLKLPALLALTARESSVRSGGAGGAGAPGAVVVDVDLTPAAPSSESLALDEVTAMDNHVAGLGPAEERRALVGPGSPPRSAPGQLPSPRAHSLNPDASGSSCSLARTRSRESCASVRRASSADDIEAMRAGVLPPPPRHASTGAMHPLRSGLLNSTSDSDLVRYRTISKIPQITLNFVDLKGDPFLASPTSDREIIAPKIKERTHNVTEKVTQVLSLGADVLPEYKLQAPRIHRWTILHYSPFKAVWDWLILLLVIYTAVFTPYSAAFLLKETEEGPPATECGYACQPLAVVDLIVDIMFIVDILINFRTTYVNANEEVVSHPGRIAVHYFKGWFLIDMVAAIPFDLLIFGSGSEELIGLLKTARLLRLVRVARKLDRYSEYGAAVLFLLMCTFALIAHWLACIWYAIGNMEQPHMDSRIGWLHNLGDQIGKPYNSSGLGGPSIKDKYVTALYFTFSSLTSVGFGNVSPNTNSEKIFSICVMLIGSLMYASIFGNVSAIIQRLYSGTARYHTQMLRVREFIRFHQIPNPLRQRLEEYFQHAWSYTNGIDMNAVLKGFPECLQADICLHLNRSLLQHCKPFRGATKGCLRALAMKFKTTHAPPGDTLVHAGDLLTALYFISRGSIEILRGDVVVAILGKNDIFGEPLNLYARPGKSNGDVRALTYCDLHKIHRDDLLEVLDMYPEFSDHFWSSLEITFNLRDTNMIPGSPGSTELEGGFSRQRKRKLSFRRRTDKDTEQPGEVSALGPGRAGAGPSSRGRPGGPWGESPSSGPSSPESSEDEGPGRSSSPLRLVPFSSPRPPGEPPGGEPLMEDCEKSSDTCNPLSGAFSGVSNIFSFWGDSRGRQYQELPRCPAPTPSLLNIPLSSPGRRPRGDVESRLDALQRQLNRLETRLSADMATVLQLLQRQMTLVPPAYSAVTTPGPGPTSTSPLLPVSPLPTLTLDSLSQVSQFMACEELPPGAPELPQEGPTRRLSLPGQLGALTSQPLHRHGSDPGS
row,Compound,"hERG current change (%, negative = inhibition) at 10uM [%]"
1,CC(C)c1nc(SCC(=O)N2c3ccccc3CC2C)c2ccccc2n1 (stereo not shown),-12.6
2,CON1C(=O)C(=O)N(OC)C(C)(C)C1C (stereo not shown),-8.02
3,CC(=O)N=c1scc(-c2ccccc2)n1-c1cccc(O)c1,7.32
4,Cc1c(Cl)cccc1NC(=S)N(Cc1ccccc1)Cc1cccnc1,-2.45
5,O=C(O)C1CCC(Cn2c(SCc3cc(=O)n4cc(Br)ccc4n3)nc3ccsc3c2=O)CC1 (stereo not shown),21.1
6,COc1ccccc1N1CCN(C(=O)CN2C(=O)C3CCCCC3C2=O)CC1 (stereo not shown),22.7
7,CCc1ccc(NC(=O)C(C)OC(=O)CN2C(=O)NC3(CCCC3)C2=O)cc1 (stereo not shown),-6.42
8,Cc1ccc(Cn2nnc3c(=O)n(Cc4ccccc4C)cnc32)cc1,9.44
9,C#Cc1cccc(-n2nnc(C(=O)OC)c2-c2ccccc2)c1,19.5
10,Cc1ccc(C(=O)Nc2ccccc2C(=O)NC(Cc2ccccc2)C(=O)O)cc1 (stereo not shown),16.8
11,Cn1c(NNC(=O)/C=C/c2ccc3c(c2)OCO3)cc(=O)n(C)c1=O,12.6
12,CCCCn1c(SCc2nnc(-c3ccccc3)o2)nc2c1c(=O)n(C)c(=O)n2C,-56
13,CN1CCN(S(=O)(=O)c2ccc3[nH]cc(C(=O)O)c(=O)c3c2)CC1,-2.95
14,CN(CC(=O)Nc1ccccc1Cl)C(=O)Cn1cc(C(F)(F)F)cc(Cl)c1=O,-6.27
15,Cc1ccnc(N2CCC(C(=O)Nc3ccc(Oc4ccccc4)cc3)CC2)n1,-16.8
16,COc1ccc(Nc2ncc(C(=O)N3CCC(C(N)=O)CC3)c3ccccc23)cc1,11.3
17,C/C(=N\NC(=O)c1c(Cl)c(C)nn1C)c1ccc(NC(=O)C2CCC2)cc1,15.9
18,CC(=O)Nc1ccc2nc(NC(=O)c3cccnc3)sc2c1,9.49
19,CN(C)c1ccc(/C=C/c2nc3ccccc3s2)cc1,17.7
20,Clc1cccc(NCc2nnc(SCc3ccc(Cl)cc3Cl)o2)c1,-2.87
21,CN(C)CCNCc1ccc(OC2CCCC2)cc1.Cl,-5.02
22,O=C(O)c1ccccc1C(=O)Nc1ccccc1NC(=O)c1ccccc1C(=O)O,4.73

row,Compound,"hERG current change (%, negative = inhibition) at 10uM [%]"
1,CNC(=O)c1ccsc1NC(=O)CS(=O)(=O)c1ccccc1,-6.08
2,Clc1cc(Cl)c2nc(N3CCOCC3)sc2c1,4.3
3,O=C(CN1C(=O)C(=O)N(C2CCCC2)C1=O)Nc1ccc(Cl)cc1C(F)(F)F,-2.38
4,O=C(O)c1ccc(/C=C2/SC(=S)N(Cc3ccccc3)C2=O)cc1,15.9
5,Cc1nnc(NNS(=O)(=O)c2ccc(Cl)cc2)[nH]c1=O,-17.3
6,Cc1ccccc1S(=O)(=O)Cc1ccc(C(=O)N2CCN(c3ccccc3F)CC2)o1,-40.7
7,CC1N=C(N)C(c2nc3ccccc3n2C)=C1O (stereo not shown),17.7
8,Cc1csc(=S)n1-c1ccccc1,12.8
9,CCCC(=O)Nc1ccc(C(=O)NNC(=S)NC(=O)c2cccs2)cc1,1.72
10,Cn1ncc([N+](=O)[O-])c1C(=O)Nc1ccn(Cc2ccccc2F)n1,-9.33
11,COc1ccccc1C(=O)Nc1c2c(nn1-c1cccc(C)c1C)CS(=O)C2 (stereo not shown),-29.4
12,Cc1ccc(N=Nc2cc(C)ccc2O)c(C)c1,2.49
13,COC(=O)[C@H]1C[C@H](C(=O)O)[C@@H](C)C1(C)C,11.9
14,CCOC(=O)C1(CCOC)CCN(Cc2ccc(C3CCCCO3)s2)CC1 (stereo not shown),-21.4
15,O=C(CSc1nc2ccccc2s1)NC1CCCc2ccccc21 (stereo not shown),3.19
16,COc1ccc(CCNS(=O)(=O)c2cn(C)c(=O)n(C)c2=O)cc1,-0.217
17,O=[N+]([O-])c1cc(CN2CCC(O)CC2)ccc1Cl,9.08
18,Cc1csc2nc3cc(C(N)=O)ccc3c(=O)n12,-0.675
19,O=C1c2ccccc2C(=O)N1CCc1c[nH]c2ccccc12,4.46
20,COc1ccc(Cl)cc1NC(=O)CN(C)CC(=O)NC(C)c1ccccc1 (stereo not shown),-13
21,O=S(=O)(Nc1nc2ccccc2nc1-[n+]1ccccc1)c1ccc(Cl)cc1.[Cl-],10.5
22,Cc1ccccc1N1CC(C(=O)O)CC1=O (stereo not shown),14.1

row,Compound,"hERG current change (%, negative = inhibition) at 10uM [%]"
1,Cc1ccc(-n2ncc3c2CC(C)(C)CC3NC(=O)c2ccccn2)cc1 (stereo not shown),-73.7
2,CCCNC(=O)CS(=O)Cc1nc(-c2cccc(OC)c2)oc1C (stereo not shown),9.57
3,O=C(c1cc(COc2ccc(-n3cncn3)cc2)on1)N1CCCC1,-12
4,Cc1cc(Cl)ccc1N(CC(=O)NCc1ccc2c(c1)OCO2)S(C)(=O)=O,-4.16
5,Cc1ccc2nc(-c3ccc(NC(=O)CSc4nc(N)cc(=O)[nH]4)cc3)sc2c1,0.805
6,COc1cccc(-c2nc(-c3ccc4c(c3)-c3ccccc3S4(=O)=O)c(-c3ccccc3)[nH]2)c1OC,0.903
7,CCC(=O)OCC(=O)Nc1cc([N+](=O)[O-])ccc1OC,-0.573
8,CCc1c(C)c(C#N)c2nc3ccccc3n2c1NCCOC,-36.9
9,O=C(NNC(=O)c1ccccc1O)c1cccc(Br)c1,17.1
10,CCC1Oc2ccc(C)cc2N(CC(=O)NCCN2CCCCCC2)C1=O (stereo not shown),-6.6
11,CCn1c(SCC(=O)Nc2nccs2)nnc1-c1ccc(S(=O)(=O)N2CCCCC2)cc1,12.5
12,COc1cc(C(=O)Nc2nc(-c3ccc(F)cc3)cs2)ccc1OCC(=O)N1CCOCC1,-53.3
13,O=C(O)c1cc(N/N=C/C=C/c2ccccc2)ccc1Cl,28.3
14,COc1ccc(OS(=O)(=O)c2ccc(N3C(=O)CCC3=O)cc2)cc1,11.1
15,COC(=O)c1ccccc1NC(=O)CN1CCN(c2ccccn2)CC1,-15.8
16,CCc1[nH]nc(C(=O)NC2CCCc3c2cnn3-c2cc(C)cc(C)c2)c1C (stereo not shown),-21.2
17,CC1CCc2c(nc3ncnn3c2NCCN(C)C)C1.Cl (stereo not shown),18.6
18,CC1(C)CN(c2cccc(Br)c2)C1=O,7.96
19,CCN(CC)c1ccc(C(=O)N/N=C(\C)c2cccc(OC)c2)cc1,-9.73
20,CCCOC(=O)C1=C(C)NC(=O)NC1c1cccc2ccccc12 (stereo not shown),4.49
21,COc1nccnc1NS(=O)(=O)c1ccc(N=Cc2c(C)[nH]n(-c3ccc(C)c(C)c3)c2=O)cc1,-1.25
22,O=C(NCCCc1ccccc1)C1CCC(=O)N(Cc2ccc(Cl)cc2)C1 (stereo not shown),-61.3

row,Compound,"hERG current change (%, negative = inhibition) at 10uM [%]"
1,S=C(Nc1cccc(Cl)c1Cl)NC1CCN(Cc2ccccc2)CC1,17.9
2,COC(=O)CC1(CC(=O)OC)C(=O)N(c2ccccc2)C(=O)N(c2ccccc2)C1=O,11.7
3,CCCCc1c(C)c(C#N)c2nc3ccccc3n2c1Nc1c(C)n(C)n(-c2ccccc2)c1=O,0.703
4,CN(c1ccccc1)c1nc(N)c([N+](=O)[O-])c(Nc2ccc(F)cc2)n1,13.7
5,Oc1oc(C=Nc2ccc(F)cc2F)c2ccccc12,15.5
6,CC1(C)NC(=O)N(CC(O)CN2CCOCC2)C1=O (stereo not shown),-4.81
7,C/C=C/c1ccc(OCCn2nnc3ccccc32)c(OC)c1,-2.9
8,COc1ccc(NC(=O)c2cc(=O)c3ccccc3o2)cn1,-17.3
9,O=C(NC(Cc1c[nH]c2ccccc12)C(=O)O)c1ccccc1 (stereo not shown),1.22
10,CCCN(c1ccc(OCC)cc1)c1ncnc2nc[nH]c12,-19
11,O=C(COC(=O)CNC(=O)c1ccccc1)Nc1ccc(S(=O)(=O)N2CCCC2)cc1,-9.13
12,Cc1ccc(S(=O)(=O)N2CCOCC2)cc1NC(=O)CSc1nc(N)cc(=O)[nH]1,19
13,O=C1CN(C(=O)NCC(=O)N[C@H](C(=O)O)c2ccccc2)c2ccccc2N1,-1.99
14,CCOC(=O)C1=C(C)NC(C)=C(C(=O)OCC)C1c1cc2ccc(C)cc2[nH]c1=O,4.64
15,OCC1CCCN(Cc2cn(Cc3ccccc3)nc2-c2cc3ccccc3o2)C1 (stereo not shown),-41.9
16,COc1ccnc2c1c(=O)n(Cc1c(F)cccc1Cl)c(=O)n2C,-34.8
17,CCC(O)CNc1nc(SC)nc2sc3c(c12)CCN(C)C3 (stereo not shown),0.847
18,Clc1ccccc1C1CC(c2ccccc2)Nc2ncnn21 (stereo not shown),-2.22
19,C=CCN(CC=C)C(=O)c1c(OC)cccc1OC,-7.4
20,C/C(=N\NC(=O)c1ccc(CSc2nncn2C)cc1)c1ccc(Cl)cc1,-17.8
21,O=C1NC(Cc2c[nH]c3ccccc23)C(=O)N1CCOc1ccccc1 (stereo not shown),-22.7
22,O=S(=O)(c1ccccc1)N1N=C(c2cccs2)CC1c1ccc(Br)cc1 (stereo not shown),13.1
